# Reference: PubChem BioAssay AID493170 (National Center for Advancing Translational Sciences (NCATS), 2011)
# The inconclusive results got no clear call from the source; some entries with a clear call stand among them for comparison. No potency is given beside an inconclusive call; the fits are too rough. The source made the active and inactive calls. Calls come from the whole dose curve; as a rule, active = well fitted inhibition curve with a large enough effect; inconclusive = small, poorly fitted or top-dose-only effect, or effect the other way; inactive = flat fitted curve, though single readings scatter.
# Target: Ubiquitin carboxyl-terminal hydrolase 2 (Homo sapiens) (UniProt O75604)
# Assay: Ub-rhodamine 110 based assay for inhibitors Ubiquitin-specific Protease USP2a; note: nearly all actives have a fitted effect of over 50% in size
# In short: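 Kinetic fluorescence (485/531 nm) read each minute over 7 min after adding Ub-Rhod110 (150 nM final) to USP2a (5 nM final). The enzyme had 30 min RT exposure to compounds beforehand in Tris pH 8.0 buffer with CaCl2, CHAPS and beta-ME.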
# Potency is the fitted concentration of half-maximal effect; tags give direction and shape of the fitted curve.
# UniProt O75604, sequence (O75604 whole entry, looked up): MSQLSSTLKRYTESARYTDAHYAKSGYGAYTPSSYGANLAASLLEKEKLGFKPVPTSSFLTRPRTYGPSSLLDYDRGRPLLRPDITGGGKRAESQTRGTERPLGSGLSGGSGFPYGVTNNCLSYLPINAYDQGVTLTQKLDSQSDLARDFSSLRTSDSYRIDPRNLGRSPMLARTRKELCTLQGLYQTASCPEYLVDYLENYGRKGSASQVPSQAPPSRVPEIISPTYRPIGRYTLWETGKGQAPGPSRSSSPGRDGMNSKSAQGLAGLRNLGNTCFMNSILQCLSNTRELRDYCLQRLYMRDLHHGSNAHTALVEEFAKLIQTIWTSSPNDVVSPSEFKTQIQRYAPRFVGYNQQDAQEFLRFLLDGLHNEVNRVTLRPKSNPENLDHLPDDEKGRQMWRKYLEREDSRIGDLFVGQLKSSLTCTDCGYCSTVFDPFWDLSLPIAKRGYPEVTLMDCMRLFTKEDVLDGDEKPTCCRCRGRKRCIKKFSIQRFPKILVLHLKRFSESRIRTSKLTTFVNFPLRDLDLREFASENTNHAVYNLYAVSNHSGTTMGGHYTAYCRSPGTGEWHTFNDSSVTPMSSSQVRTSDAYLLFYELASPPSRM
row,Structure (SMILES),Potency
1,Cc1ccc(S(=O)(=O)N2[C@@H](c3ccc(C(C)(C)C)cc3)C(C(=O)O)=CC[C@H]2c2ccc(Cl)c(Cl)c2)cc1,active: 10 µM
2,C[C@H](CO)N1C[C@H](C)[C@@H](CN(C)S(=O)(=O)c2ccc(Cl)cc2)Oc2ccc(NS(=O)(=O)c3ccccc3)cc2CC1=O,"inconclusive [inhibitor, partial curve, poor fit]"
3,Cc1c(NC(=O)c2ccc(COc3ccc4ccccc4c3)o2)c(=O)n(-c2ccccc2)n1C,"inconclusive [inhibitor, single point]"
4,C/C(CC(=O)N1CCCC1)=N\NC(=O)c1cc2ccccc2cc1O,"inconclusive [inhibitor, single point]"
5,Cc1ccc(Cn2nnc3c(=O)[nH]c(C4CCN(S(=O)(=O)Cc5ccccc5)CC4)nc32)cc1,"inconclusive [inhibitor, single point]"
6,Nc1ccc2nc(-c3cccc(-c4nc5ccc(N)cc5[nH]4)c3)[nH]c2c1,"inconclusive [inhibitor, partial curve, poor fit]"
7,COc1cc(/C=C/C(=O)OCC(=O)NC(=O)NCc2ccco2)ccc1OC(F)F,"inconclusive [inhibitor, single point]"
8,O=C(CSc1nccc(=O)[nH]1)N1N=C2/C(=C/c3ccco3)CCCC2C1c1ccco1 (centres undefined),active: 10 µM
9,O=C(COC(=O)c1cc(-c2ccc(Cl)s2)nc2ccccc12)NCc1ccco1,active: 11.2 µM
10,Cc1cc(C)cc(OCC(=O)Nc2ccc(N3CCCC3)cc2)c1,"inconclusive [inhibitor, partial curve, poor fit]"
11,O=C(Cn1nc(-c2cccs2)ccc1=O)Nc1ccc(Br)cc1,"inconclusive [inhibitor, single point]"
12,Cc1cc(N)c2cc(NC(=O)/C=C/c3ccccc3Cl)ccc2n1,"inconclusive [inhibitor, single point]"
13,COc1ccc2[nH]c(=O)c(CN(Cc3ccco3)Cc3nnnn3Cc3ccccc3)cc2c1,inactive
14,COc1ccccc1N1C(=O)CC(N2CCc3ccccc32)C1=O (centres undefined),"inconclusive [inhibitor, single point]"
15,O=c1c2c3nc4ccccc4nc3n(Cc3ccccc3)c2ncn1Cc1ccco1,active: 11.2 µM
16,COc1cc(C2C(C#N)=C(N)Oc3c2ccc2ccccc32)ccc1OCC(=O)Nc1cccc(C)c1 (centres undefined),inactive
17,CCOC(=O)c1c(-c2ccc(C)o2)csc1NC(=O)COC(=O)c1ccc(NC(N)=O)cc1,active: 7.08 µM
18,Cc1ccc([C@@H]2CC=C(C(=O)O)[C@H](c3cccc(Cl)c3)N2S(=O)(=O)c2ccc(C)cc2)cc1,"inconclusive [inhibitor, partial curve, poor fit]"
19,COC(=O)C1CCN(C(=O)c2cc(-c3ccco3)nc3ccccc23)CC1,active: 3.55 µM
20,CNS(=O)(=O)c1cccc(C(=O)OCC(=O)c2cc(C)n(-c3ccc4c(c3)OCO4)c2C)c1,"inconclusive [inhibitor, partial curve]"
21,CCCCCCCCCS(=O)(=O)N/N=C/c1cccc([N+](=O)[O-])c1,"inconclusive [inhibitor, single point]"
22,C=CC[C@H](CC(=O)N[C@H](CO)Cc1ccccc1)C(=O)N[C@H](COC(=O)[C@@H](CC=C)CC(=O)OC(C)(C)C)Cc1c[nH]c2ccccc12,inactive
23,N#CCC(=O)Nc1ccc(C(=O)OCC(=O)NCc2ccc3c(c2)OCO3)cc1,active: 10 µM
24,CN(C)S(=O)(=O)c1cccc(NC(=S)NNC(=O)c2cc3ccccc3cc2O)c1,"inconclusive [inhibitor, single point]"
25,CCOC(=O)c1[nH]c2ccc(OC)cc2c1NC(=O)CCN1CCC(C)CC1,inactive
26,CCC(C(=O)Nc1nnc(-c2ccco2)s1)c1ccccc1 (centres undefined),inactive
27,Cc1ccc(CN2C(=O)N/C(=C\c3cccn3-c3cccc(C(=O)O)c3)C2=O)cc1,inactive
28,Nc1c(C(=O)NCC2CCCO2)sc2nc3c(c(-c4ccco4)c12)CC/C3=C\c1ccco1 (centres undefined),"inconclusive [inhibitor, full curve, poor fit]"
29,O=C(CNC(=O)c1ccco1)Nc1ccc(S(=O)(=O)N2CCCC2)cc1,inactive
